Source: article PMC4336329 (PLoS ONE, 2015)
Hit rate of the full screen: of about 310,000 compounds, about 2,200 (0.71%) showed an effect of 50% or more. The effect is printed as a negative number. Some of the results follow.

molecular target: human ether-à-go-go-related gene (hERG) potassium channel (human, UniProt Q12809); assay: primary screen, population patch clamp on CHO cells stably expressing hERG
Sequence (Q12809 whole entry, looked up): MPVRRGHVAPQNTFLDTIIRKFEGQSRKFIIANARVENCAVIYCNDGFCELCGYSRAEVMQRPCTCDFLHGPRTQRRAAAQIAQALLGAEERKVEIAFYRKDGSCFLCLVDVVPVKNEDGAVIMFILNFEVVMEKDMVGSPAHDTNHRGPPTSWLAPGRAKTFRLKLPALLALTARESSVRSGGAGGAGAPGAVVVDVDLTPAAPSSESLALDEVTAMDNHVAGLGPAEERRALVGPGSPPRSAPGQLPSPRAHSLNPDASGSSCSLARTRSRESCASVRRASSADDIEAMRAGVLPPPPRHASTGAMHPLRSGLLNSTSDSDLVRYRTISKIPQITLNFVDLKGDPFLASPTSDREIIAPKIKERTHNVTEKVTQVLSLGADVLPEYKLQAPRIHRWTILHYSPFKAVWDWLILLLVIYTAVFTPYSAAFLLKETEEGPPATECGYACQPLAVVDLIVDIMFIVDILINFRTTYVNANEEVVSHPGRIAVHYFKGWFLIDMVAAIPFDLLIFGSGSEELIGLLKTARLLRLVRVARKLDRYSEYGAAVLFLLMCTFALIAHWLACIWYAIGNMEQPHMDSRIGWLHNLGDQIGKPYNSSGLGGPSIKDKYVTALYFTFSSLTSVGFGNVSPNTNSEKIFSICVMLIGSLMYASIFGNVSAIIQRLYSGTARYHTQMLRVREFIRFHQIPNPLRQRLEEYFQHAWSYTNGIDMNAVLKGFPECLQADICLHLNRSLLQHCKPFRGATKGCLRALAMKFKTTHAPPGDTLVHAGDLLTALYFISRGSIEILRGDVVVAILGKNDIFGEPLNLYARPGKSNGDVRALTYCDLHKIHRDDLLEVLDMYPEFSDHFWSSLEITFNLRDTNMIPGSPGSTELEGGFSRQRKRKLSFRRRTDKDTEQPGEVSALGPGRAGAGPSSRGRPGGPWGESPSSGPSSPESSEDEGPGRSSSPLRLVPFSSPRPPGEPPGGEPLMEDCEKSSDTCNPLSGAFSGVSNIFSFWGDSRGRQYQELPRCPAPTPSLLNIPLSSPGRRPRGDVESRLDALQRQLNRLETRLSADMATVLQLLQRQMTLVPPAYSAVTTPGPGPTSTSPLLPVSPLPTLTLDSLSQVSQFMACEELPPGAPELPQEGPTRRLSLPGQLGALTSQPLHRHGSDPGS

| Compound | hERG current change (%, negative = inhibition) at 1uM [%] |
| --- | --- |
| COc1cc(NC(=O)c2c(-c3ccccc3Cl)noc2C)c2ncccc2c1 | 18.4 |
| CCCC(O)(c1ccc(OC)cc1)C(CN(C)C)c1ccccc1 (stereo not shown) | 11 |
| COc1cccc(C(=O)N2CCN(C(=O)C3COc4ccccc4O3)CC2)c1 (stereo not shown) | 18.6 |
| Cc1cc(C)nc(/N=C(\N)Nc2ccc(C)c([N+](=O)[O-])c2)n1 | 12.9 |
| COc1ccc(CNC(N)=O)cc1OC | -1.05 |
| COc1ccccc1CC(=O)Nc1cc(C)ccn1 | 11.8 |
| COc1ccc(C)cc1S(=O)(=O)NCC(c1ccc2c(c1)OCO2)N1CCN(C)CC1 (stereo not shown) | -54.9 |
| CCOc1cc(C2NC(=O)NC(C)=C2C(=O)OC(C)CC)cc(Br)c1O (stereo not shown) | 10.2 |
| O=C(NCC1CCCO1)c1ccc(NC(=O)c2cccc([N+](=O)[O-])c2)cc1 (stereo not shown) | 10.1 |
| CC(C)N1CCN(Cc2nc(-c3ccccc3)cs2)CC1CCO (stereo not shown) | -5.89 |
| O=C(O)C(=O)O.c1ccc(OCCN2CCN(C(c3ccccc3)c3ccccc3)CC2)cc1 | 13.5 |
| COc1ccc(/C=N\NS(=O)(=O)c2ccc(Cl)cc2)cc1COc1ccccc1[N+](=O)[O-] | -5.26 |
| Cn1c(SCc2ccc(C#N)cc2)nnc1-c1ccccc1 | 7.75 |
| Cc1cc(C)c(S(=O)(=O)Nc2ccccc2C(=O)N2CCOCC2)c(C)c1 | -8.24 |
| Cl.O=[N+]([O-])c1cccc(C2NCC(c3ccccc3Cl)c3c2[nH]c2ccccc32)c1 (stereo not shown) | 14.3 |
| COc1cccc(CN(C)S(=O)(=O)c2cccs2)c1 | 18.1 |
| CC(C)Oc1ccc(/C(O)=C2/C(=O)C(=O)N(Cc3cccnc3)C2c2ccco2)cc1 (stereo not shown) | 14.2 |
| Cc1ccc2cc(/C=N/NC(=O)c3ccccc3[N+](=O)[O-])c(Cl)nc2c1 | 7.51 |
| O=C(O)CC(SCC(=O)Nc1ccc(Br)cc1)C(=O)O (stereo not shown) | 17.1 |
| CCC(C)NCC(=O)Nc1cc(S(=O)(=O)N(CC)c2ccccc2)ccc1Cl (stereo not shown) | -18.4 |
| CC(OC(=O)CCc1nc2ccccc2c(=O)[nH]1)C(=O)Nc1ncc(Cl)cc1Cl (stereo not shown) | 10.2 |
| O=C1NCCCC1C(=O)N/N=C/c1cccc([N+](=O)[O-])c1 (stereo not shown) | -6.98 |

| Compound | hERG current change (%, negative = inhibition) at 1uM [%] |
| --- | --- |
| CN(C)C(=O)COC(=O)c1ccc(S(=O)(=O)NCc2ccco2)cc1 | 15.3 |
| O=C(O)c1cc([N+](=O)[O-])ccc1NCc1ccccc1 | 13.9 |
| CCc1nnc2n1N=C(c1ccc(Cl)cc1Cl)CS2 | 1.51 |
| COC(=O)Cc1ccc(NC(=O)c2ccccc2Cl)cc1 | 14.2 |
| N#Cc1c(-c2cccnc2)c2c([nH]c1=S)CCCC2 | 15.3 |
| Cn1c(CNC(=O)c2ccc3c(c2)OCO3)nnc1SCC(=O)Nc1ccccc1F | 12.9 |
| COc1ccc(NC(=O)CO/N=C2\CCCc3nonc32)cc1 | 6.03 |
| CCOc1ccc(NC(=O)c2ccncc2)cc1 | 19 |
| Cc1ccc(Cl)cc1NC(=O)c1ocnc1C | -4.27 |
| Cc1ccc(S(=O)(=O)CC(=O)Nc2nc(C(C)(C)C)cs2)cc1 | 4.01 |
| O=C(O)CNc1nc(-c2ccccc2)nc2c1oc1ccccc12 | 16.5 |
| Cc1ccc(C(=O)OCC(=O)N2CC(=O)Nc3ccccc32)s1 | 15.9 |
| COc1ccc(NC(=O)c2cc3ccc4c5ccccc5[nH]c4c3cc2O)cc1 | 9.99 |
| CC(Oc1ccc2ccccc2c1)C(=O)NNC(=O)Nc1ccccc1 (stereo not shown) | 18 |
| CCn1c(C(=O)Nc2ccsc2C(=O)OC)cc2sc(Cl)cc21 | 6.85 |
| NC(=O)SCC(=O)Nc1ccccc1C(=O)O | 3.41 |
| NC(=O)c1ccccc1NS(=O)(=O)c1ccc(S(=O)(=O)N2CCCC2)cc1 | 6.39 |
| O=C(COC(=O)C1CC2CCCC(C1)C2=O)Nc1cccc(F)c1 (stereo not shown) | -4.61 |
| CC(=O)Nc1cccc(OCCCNS(=O)(=O)c2ccc(F)cc2)c1 | 1.52 |
| Cc1nc(S/C(=C/c2ccc(-c3cccc(Cl)c3)o2)C(=O)O)n[nH]1 | 9.55 |
| O=C(NCc1ccccn1)c1cccc(NS(=O)(=O)c2cccc(Cl)c2)c1 | 14 |
| COc1ccc(CC(=O)Nc2c3c(nn2C(C)(C)C)CS(=O)(=O)C3)cc1 | 9.94 |

| Compound | hERG current change (%, negative = inhibition) at 1uM [%] |
| --- | --- |
| CC(Sc1nnc(-c2cccnc2)o1)C(=O)NC1CCCCC1 (stereo not shown) | 16 |
| Cc1cc(Cl)cc(C)c1OCCOCCNCc1ccccc1.O=C(O)C(=O)O | 12.1 |
| O=C(CC1C(=O)NCCN1C(=O)Nc1ccccc1)Nc1cccc(Cl)c1 (stereo not shown) | -3.91 |
| O=[N+]([O-])c1c(NCCCO)cc(SCc2ccco2)c2nonc12 | -3.54 |
| CN1/C(=C\C(=O)Nc2ccc(Br)cc2)C(C)(C)c2ccccc21 | 7.08 |
| COc1cc(NC(=O)CSc2nccc(=O)[nH]2)c(C)cc1[N+](=O)[O-] | 15.7 |
| Cl.NNc1nc(-c2ccccc2)cs1 | 4.94 |
| O=C(NCC1CCCCC1)c1cc(S(=O)(=O)N2CCCCC2)ccc1Cl | -1.03 |
| CC(C)c1ccc(N2C(=O)[C@@H]3Cc4ccccc4CN3C2=O)cc1 | 22.6 |
| CCOC(=O)Cn1c(=O)c(C#N)cn(C(C)C)c1=O | 16.2 |
| Fc1cccc(/C=N/Nc2ccc3ccccc3n2)c1 | 12.9 |
| CC(=O)Nc1cccc(-c2csc(Nc3cc(C)ccn3)n2)c1 | 16.3 |
| Cc1cc(NC(c2cccnc2)c2c(C)[nH]c3ccccc23)no1 (stereo not shown) | 10.1 |
| Cc1ccsc1C(=O)NCc1ccccc1Cl | 7.2 |
| CCOC(=O)C1=NN(c2ccc(C)cc2)CC1C(=O)OC (stereo not shown) | 7.73 |
| CCOC(=O)c1cnc2c(C)cc(C)cc2c1Nc1ccc(S(=O)(=O)Nc2ncccn2)cc1 | 9.42 |
| Cc1ccc2nc(SCC(=O)Nc3nnc(SCC(N)=O)s3)[nH]c2c1 | 3.02 |
| C=Cc1c(C)c2cc3[nH]c(cc4nc(cc5nc(cc1[nH]2)C(C)=C5CCC(=O)[O-])C(CCC(=O)[O-])=C4C)c(C)c3C=C.[Na+] | 13 |
| Cc1ccnc(NC(=O)CCC(=O)N(CC(=O)NC2CCCCC2)c2cccc(C)c2C)c1 | 4.93 |
| Cc1cc(C)c(NC(=O)CSc2ccc(-c3ccccn3)nn2)c(C)c1 | 20.3 |
| Cc1cc(NC(=O)CCCC(=O)NCc2cccs2)no1 | -3.83 |
| CN(C)c1cccc(C(=O)OCC(=O)Nc2ccccc2-c2ccccc2)c1 | 3.88 |

| Compound | hERG current change (%, negative = inhibition) at 1uM [%] |
| --- | --- |
| Cc1ccc(NC(=O)c2ccccc2OCC(=O)c2ccc(F)cc2)cc1 | 3.01 |
| CCCCN1C2=NC(c3ccccc3)CN2c2ccccc21.Cl (stereo not shown) | -50.5 |
| CCOC(=O)N1CCN(CC(O)c2ccc3cc[nH]c3c2)CC1 (stereo not shown) | -11.5 |
| Cc1ccn2c(=O)nc(SCC(=O)NCc3ccccc3)nc2c1 | 9.26 |
| O=C(NCc1cccnc1)c1cc2ccccc2oc1=O | 2.98 |
| Cc1cc(C)cc(NC(=O)CSc2nnc(-c3cc(C)[nH]n3)n2N)c1 | 7.21 |
| Cc1ccc(C)c(N2CCN(C(=O)C3CCN(c4nc(C)cc(C)n4)CC3)CC2)c1 | 1.32 |
| C=CCn1c(SCC(=O)N2CCOCC2)nc2sc3c(c2c1=O)CCCC3 | -16 |
| CO[C@H]1C=CO[C@@]2(C)Oc3c(C)c(O)c4c(O)c(c(C=NN5CCN(C)CC5)c(O)c4c3C2=O)NC(=O)C(C)=CC=C[C@H](C)[C@H](O)[C@@H](C)[C@@H](O)[C@@H](C)[C@H](OC(C)=O)[C@@H]1C | 4.69 |
| CC1CC(C)(C)NC(=S)N1CC(=O)NCc1ccc2c(c1)OCO2 (stereo not shown) | 9.61 |
| O=C(NCC1CCCO1)c1ccc2c(c1)N(Cc1ccccc1)C(=O)CS2=O (stereo not shown) | 10.2 |
| Cc1ccc(Cn2c(=O)n(C)c(=O)c3sccc32)cc1 | 4.89 |
| S=C(NCC1CCCO1)Nc1cc(Cl)c(Cl)cc1Cl (stereo not shown) | 13.5 |
| CSc1ncc(C(=O)Nc2cccc(Cl)c2)c(C)n1 | 7.76 |
| O=c1[nH]nc(SCc2nc3ccccc3s2)n1C1CC1 | 12 |
| COc1ccc(CC(=O)NC(=S)Nc2cccc(C)c2)cc1 | 12.4 |
| Cc1cccc(-c2nc(=S)c3c(o2)CCCC3)c1 | 0.731 |
| O=C(NCc1ccco1)c1cc(-c2ccc(F)cc2)on1 | 10.9 |
| CCN(CC)CCCNC(=S)N1CCN(c2nc(-c3ccccc3)cs2)CC1 | 3.99 |
| CCOCCCN(C)C1CCN(C(=O)c2oc3ccccc3c2NC(=O)Cc2cccc([N+](=O)[O-])c2)CC1 | -83.8 |
| COC(=O)c1ccn(C(=O)c2ccc(Cl)cc2)n1 | 4.84 |
| COc1ccccc1NC(=O)CC(=O)c1cccc([N+](=O)[O-])c1 | 11.2 |
